{"source": "PubChem BioAssay AID504332", "about": "(National Center for Advancing Translational Sciences (NCATS), 2011)", "note": "Where “and” joins values, the source holds several entries; their conditions need not be identical. Identical values can stand only once. About 31,000 (8.9%) of roughly 350,000 compounds were called active. This list was built around the results that the source calls inconclusive (neither active nor inactive); the mix of calls is not that of the screen. Calls follow the shape of the dose curve; as a rule, active = well fitted inhibition curve with a large enough effect; inconclusive = small, poorly fitted or top-dose-only effect; inactive = no such curve, though single readings can be large or run the other way. Potencies of inconclusive entries are doubtful fits and often do not repeat. Some compounds were tested as several samples or in several runs, with calls that do not always agree. % is scaled to controls: 0 for no effect and ±100 for the full control effect; potency is read from the fitted curve at half-maximal effect; tags tell the direction and shape of the fitted curve.", "data": [{"target": "Histone-lysine N-methyltransferase EHMT2 (Homo sapiens) (UniProt Q96KQ7)", "sequence (Q96KQ7 whole entry, looked up)": "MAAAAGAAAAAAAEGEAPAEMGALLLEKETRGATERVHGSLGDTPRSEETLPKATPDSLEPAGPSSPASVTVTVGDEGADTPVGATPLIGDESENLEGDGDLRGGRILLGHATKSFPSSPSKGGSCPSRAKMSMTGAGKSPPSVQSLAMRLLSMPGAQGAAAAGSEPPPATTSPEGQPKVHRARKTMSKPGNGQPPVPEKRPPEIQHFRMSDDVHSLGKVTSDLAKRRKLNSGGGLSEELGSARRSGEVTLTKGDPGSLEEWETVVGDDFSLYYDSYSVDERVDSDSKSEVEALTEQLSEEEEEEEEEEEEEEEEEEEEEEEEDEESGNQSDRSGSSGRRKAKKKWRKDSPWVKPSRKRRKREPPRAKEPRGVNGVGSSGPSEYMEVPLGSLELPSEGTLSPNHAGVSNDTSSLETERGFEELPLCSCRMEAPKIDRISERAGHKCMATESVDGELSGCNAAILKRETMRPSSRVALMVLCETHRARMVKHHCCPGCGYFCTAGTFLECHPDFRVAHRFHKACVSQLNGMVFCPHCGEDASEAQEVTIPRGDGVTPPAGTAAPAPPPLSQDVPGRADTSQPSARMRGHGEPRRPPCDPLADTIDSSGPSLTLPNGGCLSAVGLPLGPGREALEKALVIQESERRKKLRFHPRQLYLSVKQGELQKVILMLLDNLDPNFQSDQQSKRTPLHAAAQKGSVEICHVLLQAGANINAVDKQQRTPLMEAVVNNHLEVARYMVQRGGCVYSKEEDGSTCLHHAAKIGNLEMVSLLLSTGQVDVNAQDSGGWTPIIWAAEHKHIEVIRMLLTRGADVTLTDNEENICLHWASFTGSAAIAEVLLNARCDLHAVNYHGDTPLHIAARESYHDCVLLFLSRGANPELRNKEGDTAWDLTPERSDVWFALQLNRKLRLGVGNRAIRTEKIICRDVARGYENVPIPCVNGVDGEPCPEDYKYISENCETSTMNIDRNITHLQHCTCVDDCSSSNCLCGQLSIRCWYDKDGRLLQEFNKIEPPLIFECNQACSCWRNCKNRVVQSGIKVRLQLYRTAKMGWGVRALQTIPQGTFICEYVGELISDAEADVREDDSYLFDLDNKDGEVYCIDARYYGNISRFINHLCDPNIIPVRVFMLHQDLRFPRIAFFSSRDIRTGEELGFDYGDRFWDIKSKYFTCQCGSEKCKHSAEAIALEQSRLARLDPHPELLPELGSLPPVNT", "assay": "qHTS Assay for Inhibitors of Histone Lysine Methyltransferase G9a; also: nearly all actives have a fitted effect of over 75% in size", "details": "G9a H3K9 monomethylation, AlphaScreen, 2 h; activity, negative = inhibition: at 59 µM (top of the series) unless noted", "summary_of_the_method": "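Chemiluminescent proximity detection of H3K9 monomethylation, read after 10 min bead incubation in the dark. Reaction: 20 nM G9a, 500 nM biotin-H3K9 peptide, 20 uM SAM cofactor, 2 h, room temperature, following 15 min enzyme-compound preincubation.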", "values": [{"smiles": "Oc1ccccc1-[n+]1c(-c2ccccc2)cc(-c2ccccc2)cc1-c1ccccc1", "activity, negative = inhibition": "inactive: -7.3% [at 12.7 µM]"}, {"smiles": "Clc1ccccc1Cl", "Potency": "inactive"}, {"smiles": "CN1CCN(c2ccc([N+](=O)[O-])c(NCc3ccco3)c2)CC1", "Potency": "inconclusive: 39.8 µM [inhibitor, single point]"}, {"smiles": "CC1CCCC(C)N1C(=O)CSc1nnc(NC(=O)c2cccs2)s1", "note": "(stereo not given)", "Potency": "active: 50.1 µM"}, {"smiles": "Cn1c(O)c(/C=C2\\C=Nc3ccccc32)c(=O)n(C)c1=O", "Potency": "inconclusive: 79.4 µM [inhibitor, single point]"}, {"smiles": "CC(=NCc1cccnc1)c1c(O)n(Cc2ccccc2)c(=O)[nH]c1=O", "Potency": "inconclusive: 39.8 µM [inhibitor, partial curve, poor fit]"}, {"smiles": "CCOC(=O)c1c(-n2c(C)cc(C=C3C(=O)NC(=S)NC3=O)c2C)sc2c1CCCC2", "activity, negative = inhibition": "inconclusive: -142% [inhibitor]"}, {"smiles": "COc1cccc(N2C(=O)CC(=O)NC2=O)c1", "Potency": "inconclusive: 100 µM [inhibitor, single point]"}, {"smiles": "CCN1C[C@@]2(COC)CC[C@H](OC)[C@]34[C@@H]1[C@]1(OCO[C@@]15C[C@@H](OC)C1C[C@H]3[C@H]5[C@@H]1OC)[C@H](O)[C@@H]24", "Potency": "inactive"}, {"smiles": "Cc1ccc(N2C(=O)/C(=C/c3ccc(CN(CCC#N)S(C)(=O)=O)o3)C(=O)NC2=S)cc1C", "Potency": "active: 8.91 µM"}, {"smiles": "CCn1c(O)c(C=Nc2ccc(S(N)(=O)=O)cc2)c(=O)[nH]c1=S", "Potency": "inconclusive: 10 µM [inhibitor, partial curve, poor fit]"}, {"smiles": "Cc1ccc(-n2c(O)c(C=NCc3ccco3)c(=O)[nH]c2=S)cc1C", "Potency": "inconclusive: 89.1 µM [inhibitor, partial curve, poor fit]"}, {"smiles": "CCN1CCN(C(=O)Cc2coc3ccc4ccccc4c23)CC1", "Potency": "active: 50.1 µM"}, {"smiles": "COc1cccc(N2C(=O)/C(=C/c3ccc(C)o3)C(=O)NC2=S)c1", "Potency": "active: 4.47 µM"}, {"smiles": "O=C(c1ccc2nc(-c3ccco3)c(-c3ccco3)nc2c1)N1CCC2(CC1)OCCO2", "activity, negative = inhibition": "inconclusive: -121% [inhibitor] [at 12.7 µM]"}, {"smiles": "CC(C)c1ccc(OCC(=O)N2CCN(CCc3ccncc3)CC2)cc1", "Potency": "inactive"}, {"smiles": "CC(=O)C1C(=O)NC23CCCCC2C1c1ccccc1O3", "note": "(stereo not given)", "Potency": "inconclusive: 44.7 µM [inhibitor, partial curve]"}, {"smiles": "COc1cc(CN2CCc3nc(N4CCN(c5ncccn5)CC4)ncc3C2)cc(OC)c1OC", "Potency": "inconclusive: 31.6 µM [inhibitor, single point]"}, {"smiles": "CC1=C(C(=O)Nc2ccccc2)SCCO1", "Potency": "inconclusive: 28.2 µM [inhibitor, single point]"}, {"smiles": "CCOc1ccc(NC(=O)c2c(C)nn(Cc3ccccc3)c2Cl)cc1", "Potency": "inconclusive: 0.708 µM [inhibitor, partial curve, poor fit]"}, {"smiles": "CCOC(=O)C1=C(C)N(C)C2(C)CC1c1ccccc1O2", "note": "(stereo not given)", "Potency": "inconclusive: 6.31 µM [inhibitor, partial curve]"}, {"smiles": "CC(=O)OC1CC(OC(C)=O)[C@]2(C)C(CC(OC(C)=O)[C@]3(C)C2CC[C@@]2(C)C(c4ccoc4)C[C@H]4O[C@]432)C1(C)C", "note": "(stereo not given in full)", "activity, negative = inhibition": "inactive: -27.3% [at 2.33 µM]"}, {"smiles": "Cc1cccc(-n2c(O)c(/C=C/C=Nc3ccccc3)c(=O)[nH]c2=O)c1", "Potency": "inconclusive: 7.08 µM [inhibitor, single point]"}, {"smiles": "CC/C(=C(\\c1ccc(O)cc1)c1ccc(OCCN(C)C)cc1)c1ccccc1", "Potency": "inconclusive: 25.1 µM [inhibitor, single point]"}, {"smiles": "C=CCN1C(=O)NC(=O)/C(=C/C=C/c2ccccc2)C1=O", "Potency": "active: 8.91 µM"}, {"smiles": "NC(=O)CN1CC(O)CC1=O", "note": "(stereo not given)", "Potency": "inactive"}, {"smiles": "O=C(C[N+]12CCC(CC1)C(C(O)(c1ccccc1)c1ccccc1)C2)c1ccc(Br)cc1", "note": "(stereo not given)", "Potency": "inconclusive: 50.1 µM [inhibitor, partial curve]"}, {"smiles": "COc1ccc2c(c1)c(CCN)c(C)n2Cc1ccccc1", "Potency": "active: 39.8 µM"}, {"smiles": "CSc1ncc(/C=C2/C(=O)NC(=O)N(c3ccc(C(C)C)cc3)C2=O)cn1", "Potency": "active: 7.94 µM"}, {"smiles": "O=C1NC(=O)N(c2ccc3c(c2)OCO3)C(=O)/C1=C/c1ccc(N2CCCC2)o1", "Potency": "inconclusive: 28.2 µM [inhibitor, single point]"}, {"smiles": "O=C(Nc1nccs1)C(Cl)(Cl)Cl", "Potency": "inconclusive: 50.1 µM [inhibitor, partial curve, poor fit]"}, {"smiles": "COc1cccc(NC(=O)CN2CC(c3ccccc3)CC2=O)c1", "note": "(stereo not given)", "Potency": "inconclusive: 89.1 µM [inhibitor, single point]"}, {"smiles": "Cc1ccccc1-n1c(O)c(/C=N/Nc2nc3c(c(=O)n(C)c(=O)n3C)n2C)c(=O)[nH]c1=S", "Potency": "inconclusive: 25.1 µM [inhibitor, single point]"}, {"smiles": "CCN(CC)CCN=C(C)c1c(O)n(-c2ccccc2OC)c(=O)[nH]c1=O", "Potency": "inconclusive: 79.4 µM [inhibitor, single point]"}, {"smiles": "CCCCC/C(=N\\O)c1c[nH]c2ccccc12", "Potency": "inconclusive: 89.1 µM [inhibitor, single point]"}, {"smiles": "CCC1CCCCN1P(=O)(c1ccc(C)o1)C(C)(C)C", "note": "(stereo not given)", "Potency": "inconclusive: 89.1 µM [inhibitor, single point]"}, {"smiles": "CCCCCC1CC(CC(=O)NC(=S)Nc2ccc([N+](=O)[O-])cc2)C(=O)O1", "note": "(stereo not given)", "Potency": "inconclusive: 10 µM [inhibitor, partial curve, poor fit]"}, {"smiles": "Cn1cccc1CN1CCN(C(=O)COc2ccccc2)CC1", "Potency": "inconclusive: 12.6 µM [inhibitor, partial curve, poor fit]"}, {"smiles": "CC(C(=O)c1ccccc1)N1C(=O)c2ccccc2C1=O", "note": "(stereo not given)", "Potency": "inconclusive: 8.91 µM [inhibitor, partial curve, poor fit]"}, {"smiles": "Cc1ccc(-n2c(O)c(/C=N/N3CCCCC3c3cccnc3)c(=O)[nH]c2=S)cc1", "note": "(stereo not given)", "Potency": "inconclusive: 31.6 µM [inhibitor, single point]"}, {"smiles": "Cc1cc(C)cc(N2C(=O)NC(=O)/C(=C\\c3cc(C)n(C)c3C)C2=O)c1", "Potency": "inconclusive: 0.251 µM [inhibitor, partial curve, poor fit]"}, {"smiles": "COc1ccc(N=Nc2c(O)[nH]c(=S)[nH]c2=O)cc1", "Potency": "inconclusive: 50.1 µM [inhibitor, partial curve, poor fit]"}, {"smiles": "COC(=O)C1=C(c2ccc(F)cc2F)C[C@@H]2CC[C@H]1N2C(=O)NCCOc1ccccc1Cl", "activity, negative = inhibition": "inactive: 13.8% [at 2.33 µM]"}, {"smiles": "CC1(C)Cc2c(sc3c2C(=O)NC(c2cccnc2)N3)CO1", "note": "(stereo not given)", "Potency": "inconclusive: 5.62 µM [inhibitor, single point]"}, {"smiles": "CCC1CN2CCc3cc(OC)c(OC)cc3C2CC1CC1NCCc2cc(OC)c(OC)cc21", "note": "(stereo not given)", "activity, negative = inhibition": "inactive: -36% [at 2.33 µM]"}, {"smiles": "C[N+]1(C)CCN(c2ccccc2)CC1", "Potency": "active: 631 nM and active: 12.6 µM and active: 8.44 µM"}, {"smiles": "Cc1ccc2[nH]c3c(c2c1)CN(C(=O)CN1C[C@H]2C[C@@H](C1)c1cccc(=O)n1C2)CC3", "Potency": "active: 50.1 µM"}, {"smiles": "O=C(Cc1ccccc1)N1CCN(CC2CC=CCC2)CC1", "note": "(stereo not given)", "Potency": "inconclusive: 0.398 µM [inhibitor, partial curve, poor fit]"}, {"smiles": "CC1=NN(c2ccccc2)C(=O)C1=C(C)C", "Potency": "inconclusive: 44.7 µM [inhibitor, partial curve, poor fit]"}, {"smiles": "CCC(C)N1C(=O)/C(=C/c2ccc3c(c2)CCN3CCCCl)C(=O)NC1=S", "note": "(stereo not given)", "Potency": "active: 12.6 µM"}, {"smiles": "Cc1ccc(C(=O)Nc2ccc(-n3ccnc3P(=O)(O)c3ccccc3)cc2)cc1", "Potency": "inactive"}, {"smiles": "CN1CCN(c2ccc(C(N)=O)cc2[N+](=O)[O-])CC1", "Potency": "inconclusive: 1.26 µM [inhibitor, full curve]"}, {"smiles": "Cc1nn(-c2ccccc2)c2c1CC1(C(=O)N(C)C(=O)N(C)C1=O)C1CCCCN21", "note": "(stereo not given)", "Potency": "inconclusive: 79.4 µM [inhibitor, single point]"}, {"smiles": "CCCCOP(=O)(c1ccc(N(C)C)cc1)C(O)c1ccc(C(C)C)cc1", "note": "(stereo not given)", "Potency": "inconclusive: 89.1 µM [inhibitor, single point]"}, {"smiles": "C[C@@H]1OC(=O)[C@H]2C[C@H]3CCCC[C@@H]3[C@@H](/C=C/[C@H]3CCC[C@H](C)N3C)[C@@H]12", "Potency": "inactive"}, {"smiles": "CCC(=NCc1ccco1)c1c(O)n(-c2ccc(Cl)cc2)c(=O)[nH]c1=O", "Potency": "inconclusive: 56.2 µM [inhibitor, partial curve, poor fit]"}, {"smiles": "Cc1cc(C)c(Cn2c(C(=O)O)c(C=O)c3ccccc32)c(C)c1", "Potency": "inconclusive: 39.8 µM [inhibitor, partial curve]"}, {"smiles": "CCOc1cccc(C2NCc3ccccc3-n3cccc32)c1O", "note": "(stereo not given)", "Potency": "inconclusive: 28.2 µM [inhibitor, single point]"}, {"smiles": "COc1ccccc1N1C(=O)NC(=O)C2(Cc3cc(C)ccc3N(C)C2)C1=O", "note": "(stereo not given)", "Potency": "active: 8.91 µM"}, {"smiles": "CC(C)N(CC(O)c1cccc([N+](=O)[O-])c1)C(C)C", "note": "(stereo not given)", "Potency": "inconclusive: 3.98 µM [inhibitor, partial curve, poor fit]"}, {"smiles": "O=c1c2ccccc2nc(CSc2ncnc3nc[nH]c23)n1-c1ccccc1", "activity, negative = inhibition": "inconclusive: -79.7% [inhibitor]"}, {"smiles": "CN1C(=O)CC(c2ccccc2)Nc2ccccc21", "note": "(stereo not given)", "Potency": "inconclusive: 79.4 µM [inhibitor, single point]"}, {"smiles": "COc1cccc(/C=C2\\N=C(c3cncc(Br)c3)OC2=O)c1", "Potency": "inactive"}, {"smiles": "C/C(=N\\NC(N)=O)c1c(O)n(C)c(=O)n(C)c1=O", "Potency": "inconclusive: 79.4 µM [inhibitor, partial curve, poor fit]"}, {"smiles": "COc1ccc2c(c1)c(C(=O)CN1CCN(C)CC1)c(C)n2Cc1ccccc1", "Potency": "inconclusive: 6.31 µM [inhibitor, single point]"}]}]}
